Assay results taken from the RNAGym collection of RNA variant scans (doi:10.7554/elife.90254).
The source gives no read counts; variants with many changes may rest on few reads.

B1: OR4K15 (parent)
chain: GUUAACGGUCAUAGGCCAUGGAAACUAGGAGCACCAUUUCGCUGCCAGUGAAGAAAUGAACAAAGAAAAUCUGGGCCAGGCAGGCAUCAAAAGAAAUAGUCUUGCGCUCAACCAGAAAGUCUGUAAUCAUUUUAAGGGUA

Variants of: B1
Test: self-cleavage, relative activity (ratio to wild type); higher = more cleavage; in vitro, sequencing; the parent is a self-cleaving ribozyme

Q: With GUUAACGGUCAUAGGCCAUGGAAACUAGGAGCACCAUUUCGCUGCCAGUGAAGAAAUGAACAAAGUAUAUCUGGGCCAGGCAGGCACCAAAAGAAAUAGUCUUGCGCUCAACCAGAAAGUCUGUAAUCAUUUUAAGGGUA [A66U A68U U87C] as the variant, how does the self-cleavage read?
A: Its self-cleavage is 1.23.

Q: For GUUAACGGUCAUAGGCCAUGGAAACUAGGAGCACCAUUUCGCUGCCAGUGAAGAAAUGAACAAAGGAAAUCCGGGCCAGGCAGGCAUCAGAAGAAAUAGUCUUGCGCUCAACCAGAAAGUCUGUAAUCAUUUUAAGGGUA [A66G U72C A90G], which self-cleavage is on record?
A: Its self-cleavage is 0.24.

Q: With GUUAACGGUCAUAGGCCAUGGAAACUAGGAGCACCAUUUCGCUGCCAGUGAAGAAAUGAACAAAGUGAAUCUGGGCCAGGCAGGCAUCAAGAGAAAUAGUCUUGCGCUCAACCAGAAAGUCUGUAAUCAUUUUAAGGGUA [A66U A67G A91G] as the variant, how does the self-cleavage read?
A: The self-cleavage was 0.9.

Q: With GUUAACGGUCAUAGGCCAUGGAAACUAGGAGCACCAUUUCGCUGCCAGUGAAGAAAUGAACAAAGUAAAUCUGGGCCAGGCAGGCGUCAAAAGAAAUAGUCUUGCGCUCAACCAGAAAGUCUGGAAUCAUUUUAAGGGUA [A66U A86G U124G] as the variant, how does the self-cleavage read?
A: The self-cleavage was 0.48.

Q: For GUUAACGGUCAUAGGCCAUGGAAACUAGGAGCACCAUUUCGCUGCCAGUGAAGAAAUGAACAAAGGAAAUCUGAGCCAGGCAGGCAUCCAAAGAAAUAGUCUUGCGCUCAACCAGAAAGUCUGUAAUCAUUUUAAGGGUA [A66G G74A A89C], which self-cleavage is on record?
A: Its self-cleavage is 0.13.

Q: For GUUAACGGUCAUAGGCCAUGGAAACUAGGAGCACCAUUUCGCUGCCAGUGAAGAAAUGAACAAAGUAAAUCUGGGCCAGGCAGGCAUCAAAAGAGAUAGUCUCGCGCUCAACCAGAUAGUCUGUAAUCAUUUUAAGGGUA [A66U A95G U103C A117U], which self-cleavage is on record?
A: Its self-cleavage is 0.51.

Q: With GUUAACGGUCAUAGGCCAUGGAAACUAGGAGCACCAUUUCGCUGCCAGUGAAGAAAUGAACAAAGGAAAUCUGGGCCAGGCAGGCAUCAAAAGAAAUAGUCUAGCGCCCAACCAGAAAGUCUGUAAUCAUUUUAAGGGUA [A66G U103A U108C] as the variant, how does the self-cleavage read?
A: The self-cleavage was 0.

Q: Which self-cleavage does the source give for GUUAACGGUCAUAGGCCAUGGAAACUAGGAGCACCAUUUCGCUGCCAGUGAAGAAAUGAACAAAGUAAAUCUGGGCCAGGCAGGCUUCAAAAGAAAUAGUCUUGCGCUCAACCAGAAAGUCUGUAAUCAUCUUUAGCGUA [A66U A86U U131C A134U G137C] here?
A: The self-cleavage was 2.38.

Q: For GUUAACGGUCAUAGGCCAUGGAAACUAGGAGCACCAUUUCGCUGCCAGUGAAGAAAUGAACAAAGGAAAUCUGGGCCAGGCAGGCAUCAAAAGAAAUAGUCUUGCGUUCAACCAGAAAGUCUGUAAUCAUCUUAAGGGUA [A66G C107U U131C], which self-cleavage is on record?
A: Its self-cleavage is 0.

Q: Which self-cleavage does the source give for GUUAACGGUCAUAGGCCAUGGAAACUAGGAGCACCAUUUCGCUGCCAGUGAAGAAAUGAACAAAGUAAGUCUGGGCCAGGCAGGCAUCAAAAGAAAUAGUCUUGCGCUCAACCAGUAAGUCUGUAAUCAUUUUAAGGGUA [A66U A69G A116U] here?
A: The self-cleavage was 0.13.

Q: For GUUAACGGUCAUAGGCCAUGGAAACUAGGAGCACCAUUUCGCUGCCAGUGAAGAAAUGAACAAAGGAAAUCUGGUCCAGGCAGGCAUCAAAAGAAAUAGUCUUGCGCUCAACCAGAAAGUUUGUAAUCAUUUUAAGGGUA [A66G G75U C121U], which self-cleavage is on record?
A: Its self-cleavage is 0.2.

Q: For GUUAACGGUCAUAGGCCAUGGAAACUAGGAGCACCAUUUCGCUGCCAGUGAAGAAAUGAACAAAGUAAGUCUGGGCCAGGCAGGCAUCGAAAGAAAUAGUCUUGCGCUCAACCAGAAAGUCUGUAAUCAUUUUAAGGGUA [A66U A69G A89G], which self-cleavage is on record?
A: The self-cleavage was 0.94.

Q: With GUUAACGGUCAUAGGCCAUGGAAACUAGGAGCACCAUUUCGCUGCCAGUGAAGAAAUGAACAAAGGAAAUCCGGGCCAGGCAGGCAUCAAAAGAAAUAGUCUUGCGCUCAACCAGAAAGUCUGUAAUCAUUCUAAGGGUA [A66G U72C U132C] as the variant, how does the self-cleavage read?
A: The self-cleavage was 0.28.

Q: For GUUAACGGUCAUAGGCCAUGGAAACUAGGAGCACCAUUUCGCUGCCAGUGAAGAAAUGAACAAAGGAAAUCUGGGCCAGGCAGGCAUCAAAAGAAAUAGUCUCGCGCUCAACCGGAAAGUCAGUAAUCAUUUUAAGGGUA [A66G U103C A114G U122A], which self-cleavage is on record?
A: The self-cleavage was 0.09.

Q: With GUUAACGGUCAUAGGCCAUGGAAACUAGGAGCACCAUUUCGCUGCCAGUGAAGAAAUGAACAAAGGAAACCUGGGCCAGGCAGGCAUCAAAAGAAAUAGUCUUGCGCUCAACCAGAAAGUCUGUAAUCGUUUUAAGGGUA [A66G U70C A129G] as the variant, how does the self-cleavage read?
A: Its self-cleavage is 0.41.

Q: With GUUAACGGUCAUAGGCCAUGGAAACUAGGAGCACCAUUUCGCUGCCAGUGAAGAAAUGAACAAAGUAAAUCUGGGCCAGGCAGGCAUCAGAAGAAAUAGACUUGCGCUCAACCAGAAGGUCUGUAAUCAUUUUAAGGGUA [A66U A90G U100A A118G] as the variant, how does the self-cleavage read?
A: Its self-cleavage is 0.11.

Q: Which self-cleavage does the source give for GUUAACGGUCAUAGGCCAUGGAAACUAGGAGCACCAUUUCGCUGCCAGUGAAGAAAUGAACAAAGGAAAUCAGGGCCAGGCAGGCAUCAAAAGAAAUAGUCUUGCGCUCAACCAGAAGGCCCGUAAUCAUUUUAAGGGUA [A66G U72A A118G U120C U122C] here?
A: The self-cleavage was 0.01.

Q: With GUUAACGGUCAUAGGCCAUGGAAACUAGGAGCACCAUUUCGCUGCCAGUGAAGAAAUGAACAAAGGAAAUCUGGGCCAGGCAGGCAUCAAAAGAAAUAGUCUCGCGCGCAACCAGAAAGUCUGUAAUCAUUUUGAGGGUA [A66G U103C U108G A134G] as the variant, how does the self-cleavage read?
A: The self-cleavage was 0.01.

Q: For GUUAACGGUCAUAGGCCAUGGAAACUAGGAGCACCAUUUCGCUGCCAGUGAAGAAAUGAACAAAGGAAAUCUGGGCCAGGCAGGCAUCAAAAGAAAUAGUCUUGCGCUCAACCAGAAAGUCUGCAAUCAUUUUAGGGGUA [A66G U124C A135G], which self-cleavage is on record?
A: The self-cleavage was 0.19.

Q: Which self-cleavage does the source give for GUUAACGGUCAUAGGCCAUGGAAACUAGGAGCACCAUUUCGCUGCCAGUGAAGAAAUGAACAAAGUAAAUCUGGGCCGGGCAGGCAUCAAAAGAAAUAGUCUUGCGCUCAACCAGAAAGUCUGUAACCAUUUUAAGGGUA [A66U A78G U127C] here?
A: The self-cleavage was 0.18.

Q: For GUUAACGGUCAUAGGCCAUGGAAACUAGGAGCACCAUUUCGCUGCCAGUGAAGAAAUGAACAAAGGAAAUCUGGGCCAGGCAGGGAUCAAAAGAAAUAGUCUUGCGCUCGACCAGAAAGUCUGUAAUCAUUUUAAGGGUA [A66G C85G A110G], which self-cleavage is on record?
A: Its self-cleavage is 0.17.
